According to article PMC4336329 (PLoS ONE, 2015):
The whole screen tested about 310,000 compounds, of which about 14,000 (4.5%) showed an effect of 50% or more. The effect is printed as a negative number. The list shows a part of the results.

Target: human ether-à-go-go-related gene (hERG) potassium channel (human, UniProt Q12809)
Assay: primary screen, population patch clamp on CHO cells stably expressing hERG
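Also: peak tail current of the secondary pulse compared with the same well before compound.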

Chain of human ether-à-go-go-related gene (hERG) potassium channel (Q12809 whole entry, looked up): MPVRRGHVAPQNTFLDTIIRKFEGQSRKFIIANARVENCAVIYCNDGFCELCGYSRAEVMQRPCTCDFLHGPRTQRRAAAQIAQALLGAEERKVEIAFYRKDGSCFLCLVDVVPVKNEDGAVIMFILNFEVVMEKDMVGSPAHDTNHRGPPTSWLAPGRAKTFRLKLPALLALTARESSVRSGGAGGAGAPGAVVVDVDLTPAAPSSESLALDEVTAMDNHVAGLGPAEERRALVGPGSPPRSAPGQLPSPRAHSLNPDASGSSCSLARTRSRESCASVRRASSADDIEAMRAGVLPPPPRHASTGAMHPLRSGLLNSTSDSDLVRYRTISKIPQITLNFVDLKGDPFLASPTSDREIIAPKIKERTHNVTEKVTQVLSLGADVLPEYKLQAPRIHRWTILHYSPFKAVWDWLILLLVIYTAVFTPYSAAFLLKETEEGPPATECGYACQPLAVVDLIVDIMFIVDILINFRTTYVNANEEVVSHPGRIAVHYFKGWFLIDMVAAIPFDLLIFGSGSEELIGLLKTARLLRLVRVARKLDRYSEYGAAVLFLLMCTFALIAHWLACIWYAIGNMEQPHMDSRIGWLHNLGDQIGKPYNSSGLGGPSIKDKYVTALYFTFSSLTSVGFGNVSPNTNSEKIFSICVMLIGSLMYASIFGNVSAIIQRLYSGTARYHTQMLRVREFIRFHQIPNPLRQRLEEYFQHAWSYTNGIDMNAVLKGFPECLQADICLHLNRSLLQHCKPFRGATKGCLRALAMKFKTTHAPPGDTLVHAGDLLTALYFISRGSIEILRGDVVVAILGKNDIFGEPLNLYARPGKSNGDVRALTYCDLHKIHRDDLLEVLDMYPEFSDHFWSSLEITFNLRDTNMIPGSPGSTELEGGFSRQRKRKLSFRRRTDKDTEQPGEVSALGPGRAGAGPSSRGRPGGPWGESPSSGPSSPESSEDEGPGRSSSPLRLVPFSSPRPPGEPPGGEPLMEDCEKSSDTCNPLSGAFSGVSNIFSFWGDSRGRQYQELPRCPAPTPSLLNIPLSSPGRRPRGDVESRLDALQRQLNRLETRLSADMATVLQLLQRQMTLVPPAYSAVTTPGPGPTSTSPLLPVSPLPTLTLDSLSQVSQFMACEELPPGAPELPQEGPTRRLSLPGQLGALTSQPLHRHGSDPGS

Row | SMILES | hERG current change (%, negative = inhibition) at 10uM
1 | CCOC(=O)c1c(NC(=O)C2C3CCC(O3)C2C(=O)O)sc2c1CCCC2 (stereo not shown) | 25.9%
2 | COc1ccc(N(CCC#N)C(=O)/C(C#N)=C/c2cccs2)cc1 | -17.1%
3 | Cc1cc(=O)oc2cc(OC(C)C(=O)N3CCCc4ccccc43)ccc12 (stereo not shown) | -30%
4 | COc1ccc(-n2nc3c(c2NC(=O)C24CC5CC(CC(C5)C2)C4)CS(=O)C3)cc1 (stereo not shown) | -5.49%
5 | Cc1cc(NC(=O)CCC(=O)N(CC(=O)NCC2CCCO2)c2ccc(F)c(Cl)c2)no1 (stereo not shown) | 8.91%
6 | CCCCCCOC(=O)Sc1nc2ccccc2o1 | 8.42%
7 | COC(C#CCCN(C)C)(c1ccccc1)c1ccccc1.Cl | -33.3%
8 | Cn1c(=O)[nH]c(=O)c2c1nc(SCCO)n2Cc1ccccc1Cl | 12.2%
9 | COc1ccc(CN(Cc2nc3ccccc3c(=O)[nH]2)C(=O)C(C)(C)C)cc1 | 12.5%
10 | CC(N=C1NS(=O)(=O)c2ccccc21)C(=O)N1CCc2ccccc2C1 (stereo not shown) | -15.1%
11 | Cn1c(=O)c2cc(S(=O)(=O)NC(C(=O)Nc3cccc(F)c3)c3ccccc3)ccc2n(C)c1=O (stereo not shown) | -7.01%
12 | CCOc1cc(S(=O)(=O)n2nc(C)cc2C)ccc1Br | 42.6%
13 | Cc1ccc(NC(=O)CN(C)C(=O)/C=C/c2cccs2)cc1 | -25.2%
14 | O=C(NCc1nnc(SCc2ccc(F)cc2)n1-c1ccccc1)C12CC3CC(CC(C3)C1)C2 | -13.4%
15 | O=Cc1ccccc1OCCOc1ccccc1C=O | -22%
16 | O=C(O)C(=O)O.O=C(c1ccccc1)N1CCN(C2CCCCCC2)CC1 | -28.8%
17 | COc1ccc(NS(=O)(=O)c2ccc(NC(C)=O)cc2)nn1 | 10.8%
18 | CSc1cccc(NC(=O)CCCn2c(=O)c3cccn3c3cccnc32)c1 | -39.5%
19 | COCCN(C(=O)COC(=O)C1CC1C)c1c(N)n(Cc2ccccc2)c(=O)[nH]c1=O (stereo not shown) | -2.38%
20 | Cc1nc2cc3nc(C(F)(F)F)[nH]c3cc2[nH]1 | 0.0754%
21 | Nc1ccc(C(=O)N/N=C\c2cc(N=Nc3cccc4ccccc34)ccc2O)cc1 | 19.4%
22 | COc1cc(-c2noc(CCC(=O)Nc3cccnc3)n2)cc(OC)c1OC | -3.71%

Row | SMILES | hERG current change (%, negative = inhibition) at 10uM
23 | ClCC(Br)CBr (stereo not shown) | 11.8%
24 | CCCCCOc1ccccc1C(=O)NCCCC(=O)O | 11.7%
25 | CN1CCN(c2ccc(Cl)cc2NC(=O)/C=C/c2cccc(F)c2)CC1 | -69.9%
26 | CC(=O)Nc1cccc(-c2nnc(SCC(=O)N3CCCCC3)n2C)c1 | -2.06%
27 | O=C(N/N=C/c1ccccc1Cl)c1n[nH]c2c1CCCC2 | 23.6%
28 | O=C(c1cccs1)N1CCC(c2ccccc2)C1 (stereo not shown) | -1.16%
29 | CC(C)C(=O)NCCSc1c[nH]c2ccccc12 | 7.45%
30 | Nc1nnc(SCc2cn3cc(Cl)ccc3n2)s1 | 5.94%
31 | COc1ccc2cc(C(=O)Nc3ccc(S(N)(=O)=O)cc3)sc(=O)c2c1OC | 26.8%
32 | Cn1c(CN2CCN(C(=O)c3ccco3)CC2)nc2cc([N+](=O)[O-])ccc21 | -60%
33 | C=CCn1c(SCC(=O)c2cc(C)n(CCOC)c2C)nc2sc(C)c(C)c2c1=O | 14.4%
34 | COCCNC(=O)Nc1ccc2nc(-c3cccs3)c(-c3cccs3)nc2c1 | 5.82%
35 | COc1ccc(Cc2noc(CN(C)CCc3ccccc3)n2)cc1OC | 7.3%
36 | Cc1c(N(C(=O)c2cnccn2)C2(C(=O)NC3CCCC3)CCCCC2)c(=O)n(-c2ccccc2)n1C | -27.1%
37 | CCCCCOc1ccc(C(=O)NC(C(=O)O)C(C)C)cc1 (stereo not shown) | 6.65%
38 | CCC(=O)NC(Nc1ccccn1)(C(=O)OC)C(F)(F)F (stereo not shown) | 33%
39 | COc1ccc(C(=O)Nc2c(O)ccc3ccccc23)cc1 | 18.8%
40 | CC(C(=O)N(C)c1ccccc1)N1CCN(C(=O)c2ccccc2)CC1.O=C(O)C(=O)O (stereo not shown) | 19.2%
41 | O=C(NCCCN1CCOCC1)c1nn2c(C(F)(F)F)cc(-c3ccco3)nc2c1Cl | -9.44%
42 | Nc1ccc(C(=O)N2CCN(S(=O)(=O)c3ccc4c(c3)OCCCO4)CC2)cc1[N+](=O)[O-] | -31.9%
43 | COc1ccc(-c2ccnc(-c3ccc(OCCCF)cc3)n2)cc1 | 3.51%
44 | COc1ccc(/C=N/n2cnc3c([nH]c4ccc(C)cc43)c2=O)cc1CN1CCCC1 | -63.2%

Row | SMILES | hERG current change (%, negative = inhibition) at 10uM
45 | CCN(CC)S(=O)(=O)c1cccc(C(=O)N/N=C/c2cccc(O)c2O)c1 | 9.35%
46 | COc1cccc(/C=C/C(=O)OCC(=O)N2c3ccccc3NC(=O)C2(C)C)c1 | 4.91%
47 | COc1ccc(N(CC(=O)N2CCC(Cc3ccccc3)CC2)S(C)(=O)=O)cc1 | -44.1%
48 | Nc1c(C(=O)c2ccccc2O)cnn1-c1ccc(S(=O)(=O)N2CCOCC2)cc1[N+](=O)[O-] | 17%
49 | Cc1c(CCO)c(=O)[nH]n1S(=O)(=O)c1ccc([N+](=O)[O-])cc1 | 12.8%
50 | CCc1ccc(C(=O)/C=C2\Sc3ccccc3NC2=O)cc1 | 18.7%
51 | COc1ccccc1Nc1nnc(SC(C)C(=O)NC2CC2)s1 (stereo not shown) | -4.64%
52 | CC(=O)N1CCc2cc(S(=O)(=O)NCCC(=O)NC3CCN(Cc4ccccc4)CC3)ccc21 | 10.8%
53 | Cc1cc(C)c(S(=O)(=O)n2cnc3ccccc32)c(C)c1 | 9.67%
54 | Cc1ccc(C2(C)NC(=O)N(CC(=O)Nc3ccc4[nH]c(=O)[nH]c4c3)C2=O)cc1 (stereo not shown) | -3.13%
55 | CCC1CCC2(CC1)NC(CO)(CO)CO2 (stereo not shown) | 8.52%
56 | N/C(=N\OC(=O)Cc1cccs1)c1ccccc1 | -6.77%
57 | O=C(COC(=O)Cc1ccc(Cl)cc1Cl)NCCC1=CCCCC1 | 8.53%
58 | COc1ccc(C2C(C(=O)N3CCCC3)CC(=O)N2c2ccc(OC)cc2)cc1 (stereo not shown) | 0.91%
59 | COc1cccc(C(=O)Nc2nnc(-c3ccc(Cl)cc3)o2)c1 | -14.4%
60 | Cc1cccc2sc(N(CCCN(C)C)C(=O)COc3ccc(Cl)cc3)nc12.Cl | -60.5%
61 | O=C(NC1CCCCC1)C(c1cccnc1)N(C(=O)c1csnn1)c1ccccc1 (stereo not shown) | -5.89%
62 | O=C(NNS(=O)(=O)c1ccc2ccccc2c1)c1cccnc1 | -1.23%
63 | CNC(=O)/C(C#N)=C/c1c(N2CCCCCC2)nc2c(C)cccn2c1=O | -12.7%
64 | Cc1occc1C(=O)NC(C)C(C)(C)C (stereo not shown) | 2.67%
65 | O=C(OCCOc1ccc(F)cc1)c1ccc(S(=O)(=O)N2CCCC2)cc1 | 5.02%
66 | CCOc1ccccc1NC(=O)CSc1nc2ccccc2nc1N1CCOCC1 | -30.5%

Row | SMILES | hERG current change (%, negative = inhibition) at 10uM
67 | C/C(=N\OCC(=O)NC(C)C)c1cccs1 | 46.1%
68 | O=C(Nc1cccc(S(=O)(=O)N2CCOCC2)c1)c1cc([N+](=O)[O-])ccc1N1CCOCC1 | -15.2%
69 | Cc1cc(NC(=O)CSc2ncccc2C(=O)O)no1 | 4.04%
70 | Cc1ccc(S(=O)(=O)N2CC=C(C(=O)NC3CC3)CC2)cc1 | -3.78%
71 | CCOC(=O)C1C(=O)CC(O)(c2ccccc2)CC1c1ccccc1 (stereo not shown) | -0.475%
72 | CCN(CC)c1c([N+](=O)[O-])c(=O)sc2ccccc12 | 7.23%
73 | COc1ccc(CC(=O)OCC(=O)Nc2ccc(OC(F)F)cc2)cc1OC | -19.7%
74 | COc1ccc(CC(=O)NNC(=O)c2ccc(Br)o2)cc1 | 14.5%
75 | O=C(Nc1ccc2c(c1)OCCO2)NC12CC3CC(CC(C3)C1)C2 | 13.2%
76 | CN(C)c1ccc(CN2CCCC(O)C2)cc1 (stereo not shown) | 6.62%
77 | Cc1nc(Nc2ccc3c(c2)OCO3)c2oc3ccccc3c2n1 | -0.494%
78 | Cn1c(CCNC(=O)c2ccco2)nc2cc(NC(=O)c3ccccc3Cl)ccc21 | 1.79%
79 | CCCCOc1ccc(-c2c(C#N)c(N)nc(SCC(N)=O)c2C#N)cc1 | -4.81%
80 | O=C(Cn1nc(-c2ccccc2)ccc1=O)NCCN1CCN(c2cccc(Cl)c2)CC1 | -24.4%
81 | Cc1ccc(NC(=S)Nc2ccc(OC(F)F)c(Cl)c2)cc1Cl | 16.5%
82 | O=C(Cn1nc(C(F)(F)F)c2c1CCC2)N1CCN(c2ccccc2)CC1 | -18.7%
83 | C/C(Cn1cnc([N+](=O)[O-])n1)=N\NC(=O)c1cccc(F)c1 | 6.43%
84 | CCc1cccc(NC(=O)c2ccc(Cn3nc(C)cc3C)o2)c1 | -24.6%
85 | CCN=C1S/C(=C\c2cc(OCC)c(O)cc2Br)C(=O)N1CC | 24.1%
86 | CC(/C=N\N1CCN(Cc2ccc(C)cc2)CC1)=C\c1ccccc1 | 9.71%
87 | CCOc1ccc(NC(=S)N(CCc2c(C)[nH]c3ccccc23)Cc2cccnc2)cc1 | -24.7%
88 | C#C[C@]1(OC(C)=O)CCC2C3CCC4=CC(=O)CC[C@@H]4C3CC[C@@]21C (stereo partly shown) | -10.8%
